Data as given in paper PMC4336329 (PLoS ONE, 2015).
About 2,200 (0.71%) of roughly 310,000 compounds showed an effect of 50% or more. The effect is printed as a negative number. This is one part of the list.

What follows are molecules tested against human ether-à-go-go-related gene (hERG) potassium channel (human, UniProt Q12809) (assay: primary screen, population patch clamp on CHO cells stably expressing hERG).
Description: Briefly, Chinese hamster ovary (CHO) cells stably expressing the hERG channel were dislodged from tissue culture flasks and dispensed into PPC plates. […] During the recording, background leak currents were estimated by a 100 ms step to -80 mV from an initial holding potential of -70 mV and subtracted from the subsequent current measurement. The campaign was conducted in two phases using slight differences in recording protocol. In the first phase, the initial voltage pulse used a 100 ms step to -30 mV from a holding potential of -70 mV, a 2 s conditioning step to +25 mV, and a 2 s test step to -30 mV. During the second phase of the screen, the potential during the conditioning step was raised to +45 mV. In both phases of the campaign, a secondary voltage pulse was applied using the same parameters as the second phase initial pulse. The initial and secondary pulses were applied in the absence of compound, and upon application of 1 μM and 10 μM test concentrations. Small molecule effects on hERG current density were quantified by […].

Sequence of human ether-à-go-go-related gene (hERG) potassium channel (Q12809 whole entry, looked up): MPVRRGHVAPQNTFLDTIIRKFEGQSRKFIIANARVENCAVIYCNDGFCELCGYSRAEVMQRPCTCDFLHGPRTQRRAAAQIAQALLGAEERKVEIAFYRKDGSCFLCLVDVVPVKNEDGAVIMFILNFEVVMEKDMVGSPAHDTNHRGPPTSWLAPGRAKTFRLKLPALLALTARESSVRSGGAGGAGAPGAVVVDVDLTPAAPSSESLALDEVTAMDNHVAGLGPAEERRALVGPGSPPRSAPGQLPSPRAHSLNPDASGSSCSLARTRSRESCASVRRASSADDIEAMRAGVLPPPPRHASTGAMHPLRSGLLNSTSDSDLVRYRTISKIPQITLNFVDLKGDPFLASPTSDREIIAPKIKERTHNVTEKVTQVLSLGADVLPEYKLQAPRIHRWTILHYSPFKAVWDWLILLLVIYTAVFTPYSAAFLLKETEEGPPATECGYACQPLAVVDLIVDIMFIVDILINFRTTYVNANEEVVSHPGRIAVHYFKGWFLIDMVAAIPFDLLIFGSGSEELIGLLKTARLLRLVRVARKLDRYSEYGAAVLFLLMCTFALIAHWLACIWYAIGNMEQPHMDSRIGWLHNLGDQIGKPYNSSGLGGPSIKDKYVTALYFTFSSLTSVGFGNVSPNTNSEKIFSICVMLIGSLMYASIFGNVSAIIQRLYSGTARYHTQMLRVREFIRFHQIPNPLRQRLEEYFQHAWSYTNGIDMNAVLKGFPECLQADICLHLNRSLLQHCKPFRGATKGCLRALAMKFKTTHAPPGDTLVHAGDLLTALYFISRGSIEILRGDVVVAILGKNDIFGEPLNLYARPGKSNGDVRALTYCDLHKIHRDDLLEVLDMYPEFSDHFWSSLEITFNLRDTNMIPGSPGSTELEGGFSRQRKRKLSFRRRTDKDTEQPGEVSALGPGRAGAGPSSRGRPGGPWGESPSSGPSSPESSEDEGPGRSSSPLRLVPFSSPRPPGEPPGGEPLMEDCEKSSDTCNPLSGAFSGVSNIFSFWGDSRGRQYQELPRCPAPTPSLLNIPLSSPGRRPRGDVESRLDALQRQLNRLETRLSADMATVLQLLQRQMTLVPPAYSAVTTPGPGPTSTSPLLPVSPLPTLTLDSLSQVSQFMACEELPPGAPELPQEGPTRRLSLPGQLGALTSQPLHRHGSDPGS

Row | SMILES | hERG current change (%, negative = inhibition) at 1uM
1 | CCCC(=O)C1=C(N(C)c2ccccc2)CC(C)(C)C(C(=O)OC)C1=O (stereo not drawn) | 4.75%
2 | Cc1cc(C)cc(NC(=O)COc2ccc(C(=S)N3CCOCC3)cc2)c1 | 1.9%
3 | O=C(Cc1ccc(F)cc1)N/N=C/c1ccncc1 | 4.01%
4 | COc1ccc(S(=O)(=O)NCCc2ccco2)cc1OC | 7.85%
5 | CCc1cc(Cn2nc(-c3ccccc3)cc2C(=O)NCc2ccccc2OC)on1 | 6.59%
6 | CC(=O)Nc1cccc(NC(=O)CS(=O)(=O)c2cn(CC(=O)N3CCCC3)c3ccccc23)c1 | 10.2%
7 | COc1ccc(C(=O)OCn2nnc3ccccc3c2=O)cc1 | 14.7%
8 | CCNC(=O)c1sc(=S)n(-c2ccc(C)cc2)c1N | 3.75%
9 | Cc1cc(Cl)ccc1N(CC(=O)NCCSCc1ccco1)S(C)(=O)=O | 13.8%
10 | O=S(=O)(Nc1ccc(N2CCCCC2)cc1)c1ccccc1F | 12.2%
11 | Cn1cc(CNC(=O)C2CCC(=O)N(Cc3ccccc3F)C2)cn1 (stereo not drawn) | 14.8%
12 | O=c1ccc(-c2ccc(S(=O)(=O)Nc3cccc(F)c3)o2)n[nH]1 | -7.68%
13 | Cc1onc(-c2c(Cl)cccc2Cl)c1C(=O)O/N=C(\C#N)c1ccccc1 | 7.14%
14 | Cn1c(/N=C/c2ccccc2[N+](=O)[O-])nc2ccccc21 | 11.6%
15 | O=C(NCCCCCCNC(=O)c1cccs1)c1cccs1 | 13.4%
16 | CCOC(=O)C1(Cc2ccccc2C(F)(F)F)CCN(Cc2ccc(COC)o2)CC1 | 10.1%
17 | COc1cc2c(cc1OC)CN(c1ncccc1[N+](=O)[O-])CC2 | 5.11%
18 | O=C(COC(=O)CCN=C1NS(=O)(=O)c2ccccc21)NC1CCCCCCC1 | 3.08%
19 | CC(C)c1nc2c(s1)CCc1onc(-c3cccc([N+](=O)[O-])c3)c1-2 | 13.4%
20 | COC(=O)CSc1nc(-c2ccc(C)cc2)c2c(c1C#N)CCCC2 | 9.7%
21 | Cn1cnc2c(=O)sc3ccccc3c21 | 17.6%
22 | O=C(OCCN1C(=O)c2ccccc2C1=O)Oc1ccccc1 | 6.69%

Row | SMILES | hERG current change (%, negative = inhibition) at 1uM
23 | Cc1cc(S(=O)(=O)N2CCCCC2)ccc1OCC(=O)N1CCCC1 | -5.99%
24 | N/C(=N\OC(=O)c1ccc2ccccc2c1)c1ccc(Br)cc1 | 10.4%
25 | CC(=O)NCCNC(=O)c1cc(-c2cccc3ccccc23)nc2ccccc12 | 9.77%
26 | Cc1cc(NC(=O)COC(=O)C2CC(=O)N(c3cccc(Cl)c3)C2)no1 (stereo not drawn) | 9.09%
27 | C/C(=N\NC(N)=S)c1ccc(-n2ccnc2)cc1 | 5.18%
28 | CCCCN(C(=O)Cc1ccc(S(=O)(=O)N2CCOCC2)s1)c1c(N)n(CCCC)c(=O)[nH]c1=O | 10.1%
29 | CN(C)c1ccc(N2C(=NC(=O)COc3ccccc3)SC3CS(=O)(=O)CC32)cc1 (stereo not drawn) | 12.2%
30 | O=C(CNC(=O)C12CC3CC(CC(C3)C1)C2)NCc1ccccc1 | 0.744%
31 | COc1cccc(CC2(CO)CCCN(Cc3ccc(C)s3)C2)c1 (stereo not drawn) | -10.6%
32 | Cn1cc(C=O)c(-c2ccc3c(c2)OCCCO3)n1 | 17.3%
33 | CC(=O)N1c2ccc(S(=O)(=O)N3CCCC(C(=O)N4CCCCC4)C3)cc2CC1C (stereo not drawn) | 16.2%
34 | CC(C)Cn1c(SC(C)C(=O)NCC2CCCO2)nc2ccc(Cl)cc2c1=O (stereo not drawn) | 12%
35 | CCC(=O)n1nc(-c2ccc(Cl)cc2)nc1NCc1ccccc1 | 8.9%
36 | CC(=O)Nc1ccc(N2C(=O)CC(N3CCSCC3)C2=O)cc1 (stereo not drawn) | 1.19%
37 | O=C(CCc1ccccc1)Nc1ccc(N2CCCCC2)cc1 | 12.4%
38 | O=C(NCc1cccs1)C1CCN(S(=O)(=O)c2ccc(Br)s2)CC1 | 3.18%
39 | CCC(CC)C(=O)c1c[nH]c(C(=O)NCCCN2CCOCC2)c1 | 8.9%
40 | O=S(=O)(Nc1ccc(-c2nc3ccccc3o2)cc1)c1ccccc1 | 9.32%
41 | CC(C)NC(=O)C1CCN(C2CCN(C(=O)c3ccc4cccc(F)c4n3)CC2)CC1 | 14.2%
42 | Cc1cc(C)cc(CC2CC(=O)N(c3cc(C)ccc3C)C2=O)c1 (stereo not drawn) | 10.2%
43 | CCC(Oc1ccccc1)C(=O)O/N=C(\N)c1ccc(OC)c(OC)c1 (stereo not drawn) | 10.8%
44 | CCOc1ccc(N(CC(=O)Nc2ccc(OC)cc2OC)S(=O)(=O)c2c(C)[nH]c(=O)[nH]c2=O)cc1 | 6.02%

Row | SMILES | hERG current change (%, negative = inhibition) at 1uM
45 | CCc1ccccc1N(CC(=O)N1CCCCCC1)S(C)(=O)=O | 15.8%
46 | O=C(N/N=C/c1sc(N2CCOCC2)nc1-c1ccccc1)c1ccccc1F | 14.7%
47 | CCOc1ccc(S(=O)(=O)N2CCCC(C(=O)NCc3ccncc3)C2)cc1 (stereo not drawn) | 7.96%
48 | COc1cc(OC)cc(C(=O)NCC2CCCN(C(=O)c3oc(C)cc3C)C2)c1 (stereo not drawn) | -3.71%
49 | COc1ccc(N2CCN(C(=O)c3cn(C)c4ccc(S(=O)(=O)N5CCOCC5)cc4c3=O)CC2)cc1 | 7.26%
50 | O=C(C1CCCO1)N1CCN(C(=S)Nc2ccc(Cl)cc2Cl)CC1 (stereo not drawn) | -0.516%
51 | CC(=O)N1CCN(C(=O)c2cccc(S(=O)(=O)N3CCN(c4ccccc4)CC3)c2)CC1 | 2.17%
52 | O=c1[nH]nc(-c2ccc(F)cc2)cc1-c1ccccc1 | 16.1%
53 | CCc1cc(=O)oc2c(C)c(O[C@@H]3O[C@H](CO)[C@@H](O)[C@H](O)[C@H]3O)ccc12 | 7.2%
54 | CCOc1ccc(/C(O)=C2/C(=O)C(=O)N(c3ccccn3)C2c2ccc(C)cc2)c(C)c1 (stereo not drawn) | 12.8%
55 | O=C(c1cccs1)N1CCN(c2ncc(C(F)(F)F)cc2Cl)CC1 | -0.834%
56 | Cc1ccccc1N1CCN(C(=O)NCc2cccc(Cl)c2)CC1 | 12.5%
57 | O=C(CCNC(=O)c1ccc([N+](=O)[O-])cc1)NCCC1=CCCCC1 | -5.82%
58 | Cc1cc2nc(C)c(Cc3ccccc3)c(=O)n2[nH]1 | 11.9%
59 | C(=C\c1ccccc1)/CSc1nnc(-c2cccnc2)n1Cc1ccco1 | -51.9%
60 | CC1(C)C(=O)C2(CCCCC2)C(=O)OC1C(=O)c1ccccc1 (stereo not drawn) | 6.81%
61 | COc1ccc(C)cc1NC(=O)CCN1CCN(C/C=C/c2ccccc2)CC1 | -70.9%
62 | CCN(CC(=O)Nc1cccc(OC)c1)CC(=O)Nc1cccc2ccccc12 | 6.3%
63 | CCCc1nnc(NC(=O)NCCN2C(=O)C3C4C=CC(C4)C3C2=O)s1 (stereo not drawn) | 12.4%
64 | COc1cc(NC(=O)c2ccc(C)c([N+](=O)[O-])c2)ccc1NC(=O)c1ccco1 | 12.2%
65 | Nc1ccn([C@H]2C[C@H](O)[C@@H](CO)O2)c(=O)n1.O | 2.7%
66 | Cc1ccc(CN2CCCN(Cc3c(C)cc(C)cc3C)S2(=O)=O)cc1 | 21.5%

Row | SMILES | hERG current change (%, negative = inhibition) at 1uM
67 | Clc1ccc2c(c1)C(N1CCNCC1)=Nc1ccccc1O2 | 18.4%
68 | CC(=O)N1N=C(c2ccc(NS(=O)(=O)c3ccccc3)cc2)CC1c1ccco1 (stereo not drawn) | 2.54%
69 | NC(=O)c1[nH]cnc1N | 10.9%
70 | CN(Cc1c(F)cccc1Cl)S(=O)(=O)c1cccs1 | -11.5%
71 | CN(Cc1nc2ccccc2n1C)S(C)(=O)=O | 7.57%
72 | Cc1cc(C)nc(NC(=NCCc2c[nH]c3ccccc23)NC(=O)C(C)(C)C)n1 | 11.2%
73 | CC(=O)SCCC(=O)N1C(C)CCCC1C(=O)O (stereo not drawn) | 9.54%
74 | CCCCN(C(=O)COC(=O)c1nc2nccc(C)n2n1)C1CCS(=O)(=O)C1 (stereo not drawn) | 0.573%
75 | Cc1ccccc1C(=O)NCC(=O)NNC(=S)NC(=O)c1ccccc1 | 7.16%
76 | CC(=O)Nc1ccc(NC(=O)CSc2ccc(-c3ccc4c(c3)OCO4)nn2)cc1 | 6.56%
77 | O=C(COC(=O)c1cnccn1)c1ccc2c(c1)CCCC2 | 0.937%
78 | C=CCn1c(SCc2nc(N)nc(N(C)C)n2)nnc1-c1cccnc1 | 12.9%
79 | COc1ccc(Oc2cccc(Cl)c2CNC(=O)CC(C)(C)CC(=O)O)cc1 | -6.32%
80 | CCCCS(=O)CC(O)COc1ccc(C(C)(C)C)cc1 (stereo not drawn) | -0.243%
81 | CCCn1nnnc1NC(=O)c1cc(Br)ccc1OC | -0.0117%
82 | O=C(CSc1nnc(NC(=O)c2cccc(Br)c2)s1)NCC1CCCO1 (stereo not drawn) | 18.2%
83 | CC1(c2nnc(-c3ccc(Cl)cc3)o2)CC(c2c(Cl)cccc2Cl)=NO1 (stereo not drawn) | 5.03%
84 | Cn1c(=O)c2c(nc(N3CCN(Cc4ccccc4)CC3)n2CCCc2ccccc2)n(C)c1=O | -9.73%
85 | CSc1ncccc1C(=O)NCCc1ccc(S(N)(=O)=O)cc1 | 14.5%
86 | O=C1[C@H]2[C@@H](c3ccc(F)cc3)N3C(=O)N(c4ccccc4)C(=O)[C@@]3(Cc3ccccc3)[C@H]2C(=O)N1C1CCCCC1 | 14.4%
87 | CC(C)C(NS(=O)(=O)/C=C/c1ccccc1)C(=O)NCc1ccc(F)cc1 (stereo not drawn) | 20.6%
